Article PMC4316160
No constants are given. Whether binding was seen depends on the method and setting. Binding seen in cells or lysates may run through a third protein. Some results given as binding are weak or reduced against the parent protein; the word gives no strength.

Amino acid sequences for entries named in this document (tags omitted). A change or cut given only in a name is not applied to a line headed by its entry.
UniProt P62821: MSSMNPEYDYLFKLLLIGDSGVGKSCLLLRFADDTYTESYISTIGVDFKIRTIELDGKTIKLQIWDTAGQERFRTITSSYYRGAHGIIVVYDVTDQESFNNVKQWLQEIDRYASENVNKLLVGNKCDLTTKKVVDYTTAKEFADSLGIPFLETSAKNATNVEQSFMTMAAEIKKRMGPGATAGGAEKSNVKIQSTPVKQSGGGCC

Experiments:
[1] = target: endogenous Rab1A (mouse (endogenous in melan-a)) (UniProt P62821); experiment: co-IP; endogenous proteins; Protein-A Sepharose beads with anti-Rab1A rabbit polyclonal antibody or control rabbit IgG, incubated with melan-a cell lysates overnight at 4°C; immunoblotting
FLAG-Rab1A(Q70L) (mouse) = FLAG-Rab1A(Q70L) (mouse) (UniProt P62821); experiment: co-IP; anti-FLAG agarose beads coupled with FLAG-Arl8b(Q75L) or FLAG-Rab1A(Q70L) incubated with COS-7 cell lysates containing T7-SKIP-RUN or T7-SKIP(Δ177–186)-RUN; immunoblotting; only the target purified

Binder	binding [1]	binding (FLAG-Rab1A(Q70L) (mouse))
endogenous SKIP (protein, UniProt Q80TQ5 1-1018) MEPREVKDRILENISLSVKKLQSYFAACEDETPAIRNHDKVLQRLCEHLDHALLYGLQDLSSGYWVLVVHFTRREAIRQIEVLQHVATNLGRSRAWLYLALNENSLESYLRLFQENLGLLQKYYVRNALVCSHDHLTLFLTLVSGLEFIRFDLDLDAPYLDLAPYMPDYYKPQYLLDFEDRLPSSVHGSDSLSLNSFNSVTSTNLEWDDSAIAPSSEDGDLTDTISGPRSTASDLTSSKTSTKSPTQRHNPFNEEQAETASSDTTPVHTTSQEKEEAQAPDQPDACTELEVIRVTKKKKIGKKKKTKLDEDASPLHPTSSQQKCGQQGEGDGLVGTPGLARDPSDTVLASPQEQGEGLSSTAGSSELSELSQMGLLIPEMKDTSMECLGQPLSKVIDKLHGQLDPSTWCSHADPPEQSFRAGSPGEAPEKPPFCDFSEGLPAPMDFYRFTVESPSTVAPGGGHHDPPGPSQPLHVPGSPAAALQEEEEGGRGEGQTSQPVEDRQGEEIQEPEPQEPDSQLPLVSQEPLVSQEPVPEPVSQPEPGTHEALCKLKRDQPSPCLSSAEDSGVEEGQGSPSEMTHPSEFRVDNNHLLLLMIHVFRENEEQLFKMIRMSTGHMEGNLQLLYVLLTDCYVYLLRKGATEKPYLVEEAVSYNELDYVSVGLDQQTVKLVCTNRRKQFLLDTADVALAELFLASLKSAMIKGCREPPYPSILTDATMEKLALAKFVAQESKCEASAVTVHFYGLVHWEDPMEEALGPVPCQCSPAEGTITKEGMLHYKASTSYLGKEHWKACFVVLSNGILYQYPDRTDVIPLLSVNMGGEQCGGCRRSNTTDRPHAFQVILADRPCLELSADSEAEMADWMQHLCQAVSKGVIPQGIAPSPCIPCCLVITEDRLFTCHEDCQTSFFRSLGTARLADITAISTELGKEYCVLEFSQDSPQLLQPWVIYLSCTSELDRFLTALSSGWKAIYQVDLPHKAIHEASIKQKFEDALSLIHSAWQRSDSLCRGRASRDPWC	binds	–
T7-SKIP-RUN (domain or fragment, UniProt Q8IWE5 1-282) MEPGEVKDRILENISLSVKKLQSYFAACEDEIPAIRNHDKVLQRLCEHLDHALLYGLQDLSSGYWVLVVHFTRREAIKQIEVLQHVATNLGRSRAWLYLALNENSLESYLRLFQENLGLLHKYYVKNALVCSHDHLTLFLTLVSGLEFIRFELDLDAPYLDLAPYMPDYYKPQYLLDFEDRLPSSVHGSDSLSLNSFNSVTSTNLEWDDSAIAPSSEDYDFGDVFPAVPSVPSTDWEDGDLTDTVSGPRSTASDLTSSKASTRSPTQRQNPFNEEPAETVSS	–	binds
T7-SKIP(Δ177–186)-RUN (domain or fragment, UniProt Q8IWE5) MEPGEVKDRILENISLSVKKLQSYFAACEDEIPAIRNHDKVLQRLCEHLDHALLYGLQDLSSGYWVLVVHFTRREAIKQIEVLQHVATNLGRSRAWLYLALNENSLESYLRLFQENLGLLHKYYVKNALVCSHDHLTLFLTLVSGLEFIRFELDLDAPYLDLAPYMPDYYKPQYLLHGSDSLSLNSFNSVTSTNLEWDDSAIAPSSEDYDFGDVFPAVPSVPSTDWEDGDLTDTVSGPRSTASDLTSSKASTRSPTQRQNPFNEEPAETVSS	–	no binding
endogenous Arl8b (protein, UniProt Q9CQW2 1-186) MLALISRLLDWFRSLFWKEEMELTLVGLQYSGKTTFVNVIASGQFSEDMIPTVGFNMRKVTKGNVTIKIWDIGGQPRFRSMWERYCRGVNAIVYMIDAADREKIEASRNELHNLLDKPQLQGIPVLVLGNKRDLPNALDEKQLIEKMNLSAIQDREICCYSISCKEKDNIDITLQWLIQHSKSRRS	no binding	–
